Values joined by “and” are separate entries in the source; they are usually repeats but may differ in a detail not shown here. Equal values may be shown once. The campaign covered roughly 50,000 compounds. About 800 (1.6%) showed an effect of 50% or more. The list shows a part of the results.
Target: Bcl-2-like protein 10 (Homo sapiens) (UniProt Q9HD36)
Assay: Phenotype converters, Bcl-B/TR3 peptide binding displacement, primary biochemical FP (AID 1240);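 further: 0% = Bcl-B with tracer peptide and DMSO and 100% = tracer peptide lacking Bcl-B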
Conditions: GST-Bcl-B / FITC-TR3 peptide fluorescence polarization; stronger effect = higher value; compound at 3.75 mg/L

Chain of UniProt Q9HD36 (Q9HD36 whole entry, looked up): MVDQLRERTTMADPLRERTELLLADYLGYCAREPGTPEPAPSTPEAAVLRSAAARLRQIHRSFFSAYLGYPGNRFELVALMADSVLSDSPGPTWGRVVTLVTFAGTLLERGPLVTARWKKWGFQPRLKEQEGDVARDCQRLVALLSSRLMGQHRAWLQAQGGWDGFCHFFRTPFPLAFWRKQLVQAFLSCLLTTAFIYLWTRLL

SMILES | displacement
COc1cccc(-c2cc(C(=O)Nc3ccc(S(N)(=O)=O)cc3)c3ccccc3n2)c1 | -6.8%
COc1ccc2c(c1OC)C(=O)OC2Nc1ccccc1Br (centres undefined) | -5.8%
COc1ccc(CNCc2cccc3ccccc23)cc1OC | 11.8%
Cc1ccc(C)c(C(C)(C)CC(=O)O)c1 | 0%
CCc1c(O)nc(SCC(=O)Nc2ccc(OC)cc2)[nH]c1=O | 3.9%
O=C1CC(N2CCC(Cc3ccccc3)CC2)C(=O)N1c1cccc(Cl)c1 (centres undefined) | -2.9%
COC(=O)c1c(NC(=O)Nc2ccc(Cl)c(Cl)c2)sc2c1CCC2 | 11.8%
Cc1cc(Cl)ccc1OCC(N)=O | -0.8%
O=c1oc2ccccc2cc1-c1ccc([N+](=O)[O-])cc1 | -3.3%
COC(=O)CN1C(=O)c2cccc3cccc(c23)C1=O | 2.1%
CC1(C)C(C=C(Cl)Cl)C1C(=O)Nc1cccc(C(=O)O)c1 (centres undefined) | 10%
CC1(O)c2ccccc2C(=O)N1Cc1ccccc1 (centres undefined) | 12.6%
O=C(CN(c1ccccc1)S(=O)(=O)c1ccccc1[N+](=O)[O-])Nc1ccccc1Cl | 5.9%
COc1ccc(NC(=O)/C(C#N)=C\c2cc(C)n(-c3ccc(Cl)c(Cl)c3)c2C)cc1 | -1.7%
COc1cc(/C=C2\SC(=S)N(CC(=O)O)C2=O)ccc1OC(=O)C12CC3CC(CC(C3)C1)C2 | 5.6%
NC(=O)c1cc(NC(=O)C(c2ccccc2)c2ccccc2)c(Cl)cc1Cl | -1.6%
CCCCOc1ccccc1NC(=O)c1ccc(C(C)(C)C)cc1 | -10.7%
COc1ccc(/C=C2\C(=O)N(c3ccc(C)c(Cl)c3)N=C2C)cc1[N+](=O)[O-] | -3.3%
COc1ccc(-n2c(=S)[nH]c3sc4c(c3c2=O)CC(C)(C)OC4)cc1 | 6.9% and -4%
O=C(CC(c1ccccc1)c1ccccc1)NCC1OCCc2ccccc21 (centres undefined) | -5.8%
Cc1cc(=O)oc2cc(OCc3cccc(Cl)c3)c(Cl)cc12 | -2.5%
COc1ccc(C[n+]2cccc(C(=O)Nc3c(C)cccc3C)c2)cc1OC | 1.1%
COc1ccc(C2=CSC3=NCCN23)cc1F | 2.6%

SMILES | displacement
CS(=O)(=O)N(CC(=O)NCCSc1ccc(Cl)cc1)c1ccc(Cl)cc1 | 12.9%
O=C(CCc1ccccc1)Nc1ccccc1-c1ccccc1 | -6%
CCN(CC)CCCNC(=O)c1cc2nc(-c3ccc([N+](=O)[O-])cc3)cc(C(F)(F)F)n2n1 | -4.7%
COc1cccc2c(Cl)c(CC=C(Cl)Cl)c(C)nc12 | -4.2%
O=C(CC(c1ccccc1)c1ccccc1)Nc1nncs1 | 5.7%
COc1cccc(N2C(=O)C(=O)/C(=C(\O)c3ccccc3)C2c2ccccc2F)c1 (centres undefined) | 11.1%
Cc1cccc(NC(=O)C(=O)NCc2ccco2)c1C | 11%
COc1cc(C=O)ccc1Oc1ncnc2sc3c(c12)CCCC3 | 4.7%
Cc1cn(C2CC(O)C(CO)O2)c(=O)n(C)c1=O (centres undefined) | -3%
COc1ccc(/C=C2\SC(=O)N(c3cccc(O)c3)C2=O)cc1 | 11.1%
O=C(c1ccc(Cl)cc1)N1CCN(c2cccc(Cl)c2)CC1 | -5.5%
O=C1NC(=O)N(c2ccc(Cl)cc2)C(=O)/C1=C/c1ccc(N2CCOCC2)o1 | -126%
COc1cccc(/C=N/NC(=O)c2cccc(N3CCCC3=O)c2)c1 | -3.5%
Cc1ccc(-c2ccccc2)n1-c1ccccc1C(=O)O | 86.8%
CCCOc1ccc(C(=O)Nc2sc(CC)cc2C(=O)OCC)cc1 | -7.9%
COc1ccccc1C(=O)Nc1cc(C(F)(F)F)ccc1Br | -7.9%
O=C(Cn1cc(Br)c(=O)n(CC(=O)Nc2ccccn2)c1=O)Nc1ccccn1 | 1.8%
Cc1ccc(OCC(=O)Nc2ccc(OC(F)(F)F)cc2)c(C)c1 | -4.5%
Cc1ccc(NS(=O)(=O)c2ccc(N3C(=O)CCC3=O)cc2)cc1 | 11.8%
O=C1CC(N2CCN(c3ccccc3)CC2)C(=O)N1c1ccc(I)cc1 (centres undefined) | -0.8%
O=C(Nc1c(C(=O)N2CCN(Cc3ccccc3)CC2)cnn1-c1ccccc1)c1ccc(Br)cc1 | -9.8%
O=[N+]([O-])c1ccc(-c2nc(Cc3c(F)cccc3Cl)no2)cc1 | 7.8%
COc1ccc(N(CC(=O)N/N=C(\C)c2ccc(OC)c(OC)c2)S(=O)(=O)c2ccccc2)cc1 | 0.8%

SMILES | displacement
O=[N+]([O-])c1ccc(CNCC2OCCc3ccccc32)cc1 (centres undefined) | 5.1%
Clc1ccc(CSc2nsc(SCc3ccc(Cl)cc3)n2)cc1 | 0.4%
S=C(c1ccc(-c2ccc(Cl)cc2Cl)o1)N1CCN(c2ccccc2)CC1 | 5.6%
CCOc1cc(/C=N/N=C2/NC(=O)CS2)ccc1OCc1ccc(F)cc1 | -11.8%
N/C(=N\OC(=O)c1ccc(Br)cc1)c1cccc([N+](=O)[O-])c1 | -8%
COc1cccc(C2Nc3ccc(C(=O)c4ccccc4)cc3NC3=C2C(=O)CCC3)c1 (centres undefined) | -5.2%
Cc1ccccc1OCCOc1ccc(/C=c2\sc3nc4ccccc4n3c2=O)cc1 | 3.3%
O=c1cc(C(F)(F)F)c2ccc(OCc3ccc(Cl)cc3)cc2o1 | -5.2%
COc1ccc(C(=O)Nc2c(C)cc(C)cc2C)cc1[N+](=O)[O-] | 6.3%
CC1(C)CC(=O)C(C2(O)C(=O)Nc3ccccc32)CO1 (centres undefined) | 3.9%
CCN(CC)C(NC(=O)C(C)(C)C)C(Cl)(Cl)Cl (centres undefined) | 7.6%
O=C(CSCC(=O)c1ccc([N+](=O)[O-])cc1)Nc1ccc2ccccc2c1 | 15.1%
O=C1N/C(=N/S(=O)(=O)c2ccccc2)S/C1=C\c1cccnc1 | 8.3%
COc1ccc(OC)c(N(CC(=O)N(Cc2ccccc2)Cc2ccccc2)S(C)(=O)=O)c1 | 10%
O=C(O)CCC(=O)Nc1cc(NC(=O)CCC(=O)O)cc(C(=O)O)c1 | 2%
Cc1ccc(S(=O)(=O)N2CCN(C3CCCCCC3)CC2)cc1 | 10.9%
COC(=O)CSc1nc(NC(C)=O)nc(C)c1Br | 4.5%
Cc1cc(C)c(S(=O)(=O)NC(=O)C23CC4CC(CC(C4)C2)C3)c(C)c1 | 1.7%
Cc1c(-c2nc(-c3ccccn3)no2)cccc1[N+](=O)[O-] | 1.2%
CCN(CC)c1ccc(/C=N/Nc2nncc(-c3ccccc3)n2)cc1 | 2.5%
COc1ccccc1NC(=O)c1c(NC(=O)c2cccc(C)c2)sc2c1CCC2 | 13.4%
CN1C2C=C(N(CCc3c[nH]c4ccccc34)C(=O)c3ccc(Cl)cc3)CC1CC2 (centres undefined) | -8.7%
O=C1NC(=O)N(c2ccc(Cl)cc2)C(=O)/C1=C\c1ccc(-c2ccc([N+](=O)[O-])cc2)o1 | 105%

Source: PubChem BioAssay AID1240 (Sanford-Burnham Center for Chemical Genomics, 2008)
